According to the supplement of paper PMC11125491:
± gives the standard deviation of the averaged measurements. Growth of baker's yeast expressing single-residue variants of Pneumocystis jirovecii dihydrofolate reductase in 8.8 or 44 µM methotrexate (about 75% and 90% inhibition of the wild type). Selection coefficient per generation; 0 = like wild type, above 0 = less sensitive, below 0 = more sensitive or loss of function. No active / inactive call per row; the paper calls resistant above 0.220 (8.8 µM) or 0.243 (44 µM) together with a significance test. At 44 µM about 15% of codons end with one read or none, so the lowest values are floors (replicate rank correlation 0.74; 0.94 at 8.8 µM).

B1: UniProt A0EPZ9; numbered along this chain (parent)
chain: MDWQKSLTLIVALTLSRGIGLKNDLPWKLKSDMMFFSRVTSGLLVTRSTGQMNVVLMGRKTWESLPAHSRPLKNRINVVISRQEVLDLGGGAYHARSLDDALALLSQIYDSTSKIQLNRVFVIGGGELCKAAMEHSRLNRIIATVIHNEVDCDVFFPIDFRSSQSCLPWRKQDHSVLEAWVGSKVPQGKINENGFIYEFEMWIRDI

Variants of: B1
Assay: selection coefficient against synonymous wild-type codons (log2 per generation); higher = faster growth than wild type
Settings: with Saccharomyces cerevisiae carrying the variant on a plasmid
Experimental: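 Pooled growth of yeast carrying single-residue variants of P. jirovecii dihydrofolate reductase (own DFR1 gene intact), two passages at 30 °C, three cultures, sequenced before and after. Codons with under 15 starting reads are left out; codons of one change are averaged.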

M33N
selection coefficient against synonymous wild-type codons (log2) (methotrexate 8.8 µM): 0.872 ± 0.024
selection coefficient against synonymous wild-type codons (log2) (methotrexate 44 µM): 1.1 ± 0.023

M33P
selection coefficient against synonymous wild-type codons (log2) (methotrexate 8.8 µM): 1.12 ± 0.057
selection coefficient against synonymous wild-type codons (log2) (methotrexate 44 µM): 1.48 ± 0.034

M33Q
selection coefficient against synonymous wild-type codons (log2) (methotrexate 8.8 µM): 0.938 ± 0.034
selection coefficient against synonymous wild-type codons (log2) (methotrexate 44 µM): 1.22 ± 0.017

M33R
selection coefficient against synonymous wild-type codons (log2) (methotrexate 8.8 µM): 0.964 ± 0.034
selection coefficient against synonymous wild-type codons (log2) (methotrexate 44 µM): 1.29 ± 0.022

M33S
selection coefficient against synonymous wild-type codons (log2) (methotrexate 8.8 µM): 1.01 ± 0.039
selection coefficient against synonymous wild-type codons (log2) (methotrexate 44 µM): 1.31 ± 0.019

M33T
selection coefficient against synonymous wild-type codons (log2) (methotrexate 8.8 µM): 0.688 ± 0.043
selection coefficient against synonymous wild-type codons (log2) (methotrexate 44 µM): 0.868 ± 0.04

M33V
selection coefficient against synonymous wild-type codons (log2) (methotrexate 8.8 µM): 0.295 ± 0.043
selection coefficient against synonymous wild-type codons (log2) (methotrexate 44 µM): 0.448 ± 0.073

M33W
selection coefficient against synonymous wild-type codons (log2) (methotrexate 8.8 µM): 0.899 ± 0.053
selection coefficient against synonymous wild-type codons (log2) (methotrexate 44 µM): 1.19 ± 0.023

M33Y
selection coefficient against synonymous wild-type codons (log2) (methotrexate 8.8 µM): 0.134 ± 0.065
selection coefficient against synonymous wild-type codons (log2) (methotrexate 44 µM): 0.215 ± 0.052

M34A
selection coefficient against synonymous wild-type codons (log2) (methotrexate 8.8 µM): 0.172 ± 0.06
selection coefficient against synonymous wild-type codons (log2) (methotrexate 44 µM): 0.137 ± 0.081

M34C
selection coefficient against synonymous wild-type codons (log2) (methotrexate 8.8 µM): -0.165 ± 0.12
selection coefficient against synonymous wild-type codons (log2) (methotrexate 44 µM): -0.0127 ± 0.061

M34D
selection coefficient against synonymous wild-type codons (log2) (methotrexate 8.8 µM): 0.362 ± 0.011
selection coefficient against synonymous wild-type codons (log2) (methotrexate 44 µM): 0.341 ± 0.073

M34E
selection coefficient against synonymous wild-type codons (log2) (methotrexate 8.8 µM): 0.177 ± 0.032
selection coefficient against synonymous wild-type codons (log2) (methotrexate 44 µM): 0.171 ± 0.084

M34F
selection coefficient against synonymous wild-type codons (log2) (methotrexate 8.8 µM): -0.21 ± 0.16
selection coefficient against synonymous wild-type codons (log2) (methotrexate 44 µM): -0.0969 ± 0.11

M34G
selection coefficient against synonymous wild-type codons (log2) (methotrexate 8.8 µM): 0.0225 ± 0.062
selection coefficient against synonymous wild-type codons (log2) (methotrexate 44 µM): 0.0424 ± 0.055

M34H
selection coefficient against synonymous wild-type codons (log2) (methotrexate 8.8 µM): -0.0649 ± 0.13
selection coefficient against synonymous wild-type codons (log2) (methotrexate 44 µM): 0.0271 ± 0.17

M34I
selection coefficient against synonymous wild-type codons (log2) (methotrexate 8.8 µM): 0.0215 ± 0.034
selection coefficient against synonymous wild-type codons (log2) (methotrexate 44 µM): -0.14 ± 0.15

M34K
selection coefficient against synonymous wild-type codons (log2) (methotrexate 8.8 µM): 0.0421 ± 0.037
selection coefficient against synonymous wild-type codons (log2) (methotrexate 44 µM): 0.064 ± 0.036

M34L
selection coefficient against synonymous wild-type codons (log2) (methotrexate 8.8 µM): 0.00647 ± 0.057
selection coefficient against synonymous wild-type codons (log2) (methotrexate 44 µM): 0.000714 ± 0.1

M34P
selection coefficient against synonymous wild-type codons (log2) (methotrexate 8.8 µM): 0.575 ± 0.027
selection coefficient against synonymous wild-type codons (log2) (methotrexate 44 µM): 0.66 ± 0.036

M34Q
selection coefficient against synonymous wild-type codons (log2) (methotrexate 8.8 µM): 0.0809 ± 0.034
selection coefficient against synonymous wild-type codons (log2) (methotrexate 44 µM): 0.0712 ± 0.054

M34R
selection coefficient against synonymous wild-type codons (log2) (methotrexate 8.8 µM): -0.0173 ± 0.027
selection coefficient against synonymous wild-type codons (log2) (methotrexate 44 µM): -0.0477 ± 0.076

M34S
selection coefficient against synonymous wild-type codons (log2) (methotrexate 8.8 µM): 0.00734 ± 0.057
selection coefficient against synonymous wild-type codons (log2) (methotrexate 44 µM): -0.0271 ± 0.057

M34T
selection coefficient against synonymous wild-type codons (log2) (methotrexate 8.8 µM): 0.136 ± 0.068
selection coefficient against synonymous wild-type codons (log2) (methotrexate 44 µM): 0.0611 ± 0.15

M34V
selection coefficient against synonymous wild-type codons (log2) (methotrexate 8.8 µM): -0.0288 ± 0.042
selection coefficient against synonymous wild-type codons (log2) (methotrexate 44 µM): -0.0946 ± 0.055

M34W
selection coefficient against synonymous wild-type codons (log2) (methotrexate 8.8 µM): -0.197 ± 0.025
selection coefficient against synonymous wild-type codons (log2) (methotrexate 44 µM): -0.217 ± 0.11

F35A
selection coefficient against synonymous wild-type codons (log2) (methotrexate 8.8 µM): 0.47 ± 0.021
selection coefficient against synonymous wild-type codons (log2) (methotrexate 44 µM): 0.662 ± 0.021

F35C
selection coefficient against synonymous wild-type codons (log2) (methotrexate 8.8 µM): 0.488 ± 0.023
selection coefficient against synonymous wild-type codons (log2) (methotrexate 44 µM): 0.564 ± 0.036

F35D
selection coefficient against synonymous wild-type codons (log2) (methotrexate 8.8 µM): -0.28 ± 0.049
selection coefficient against synonymous wild-type codons (log2) (methotrexate 44 µM): -0.081 ± 0.062

F35E
selection coefficient against synonymous wild-type codons (log2) (methotrexate 8.8 µM): -0.0721 ± 0.026
selection coefficient against synonymous wild-type codons (log2) (methotrexate 44 µM): 0.243 ± 0.067

F35G
selection coefficient against synonymous wild-type codons (log2) (methotrexate 8.8 µM): -0.0617 ± 0.018
selection coefficient against synonymous wild-type codons (log2) (methotrexate 44 µM): 0.287 ± 0.028

F35H
selection coefficient against synonymous wild-type codons (log2) (methotrexate 8.8 µM): 0.459 ± 0.044
selection coefficient against synonymous wild-type codons (log2) (methotrexate 44 µM): 0.473 ± 0.023

F35I
selection coefficient against synonymous wild-type codons (log2) (methotrexate 8.8 µM): 0.246 ± 0.063
selection coefficient against synonymous wild-type codons (log2) (methotrexate 44 µM): 0.247 ± 0.03

F35K
selection coefficient against synonymous wild-type codons (log2) (methotrexate 8.8 µM): -0.298 ± 0.058
selection coefficient against synonymous wild-type codons (log2) (methotrexate 44 µM): 0.0879 ± 0.028

F35L
selection coefficient against synonymous wild-type codons (log2) (methotrexate 8.8 µM): 0.386 ± 0.027
selection coefficient against synonymous wild-type codons (log2) (methotrexate 44 µM): 0.444 ± 0.04

F35M
selection coefficient against synonymous wild-type codons (log2) (methotrexate 8.8 µM): 0.409 ± 0.017
selection coefficient against synonymous wild-type codons (log2) (methotrexate 44 µM): 0.47 ± 0.027

F35N
selection coefficient against synonymous wild-type codons (log2) (methotrexate 8.8 µM): 0.866 ± 0.016
selection coefficient against synonymous wild-type codons (log2) (methotrexate 44 µM): 1.14 ± 0.026

F35P
selection coefficient against synonymous wild-type codons (log2) (methotrexate 8.8 µM): -0.292 ± 0.1
selection coefficient against synonymous wild-type codons (log2) (methotrexate 44 µM): -0.128 ± 0.13

F35Q
selection coefficient against synonymous wild-type codons (log2) (methotrexate 8.8 µM): 0.7204 ± 0.0041
selection coefficient against synonymous wild-type codons (log2) (methotrexate 44 µM): 0.894 ± 0.013

F35R
selection coefficient against synonymous wild-type codons (log2) (methotrexate 8.8 µM): -0.112 ± 0.061
selection coefficient against synonymous wild-type codons (log2) (methotrexate 44 µM): 0.259 ± 0.039

F35S
selection coefficient against synonymous wild-type codons (log2) (methotrexate 8.8 µM): 0.416 ± 0.047
selection coefficient against synonymous wild-type codons (log2) (methotrexate 44 µM): 0.711 ± 0.048

F35T
selection coefficient against synonymous wild-type codons (log2) (methotrexate 8.8 µM): 0.613 ± 0.033
selection coefficient against synonymous wild-type codons (log2) (methotrexate 44 µM): 0.726 ± 0.031

F35V
selection coefficient against synonymous wild-type codons (log2) (methotrexate 8.8 µM): 0.271 ± 0.015
selection coefficient against synonymous wild-type codons (log2) (methotrexate 44 µM): 0.293 ± 0.021

F35W
selection coefficient against synonymous wild-type codons (log2) (methotrexate 8.8 µM): -0.0347 ± 0.051
selection coefficient against synonymous wild-type codons (log2) (methotrexate 44 µM): -0.00548 ± 0.052

F35Y
selection coefficient against synonymous wild-type codons (log2) (methotrexate 8.8 µM): 0.227 ± 0.02
selection coefficient against synonymous wild-type codons (log2) (methotrexate 44 µM): 0.248 ± 0.11

F36A
selection coefficient against synonymous wild-type codons (log2) (methotrexate 8.8 µM): 0.234 ± 0.075
selection coefficient against synonymous wild-type codons (log2) (methotrexate 44 µM): 0.522 ± 0.08

F36C
selection coefficient against synonymous wild-type codons (log2) (methotrexate 8.8 µM): 0.163 ± 0.039
selection coefficient against synonymous wild-type codons (log2) (methotrexate 44 µM): 0.27 ± 0.046

F36D
selection coefficient against synonymous wild-type codons (log2) (methotrexate 8.8 µM): -0.376 ± 0.14
selection coefficient against synonymous wild-type codons (log2) (methotrexate 44 µM): -0.00599 ± 0.085

F36E
selection coefficient against synonymous wild-type codons (log2) (methotrexate 8.8 µM): -0.325 ± 0.074
selection coefficient against synonymous wild-type codons (log2) (methotrexate 44 µM): -0.0119 ± 0.11

F36G
selection coefficient against synonymous wild-type codons (log2) (methotrexate 8.8 µM): -0.437 ± 0.21
selection coefficient against synonymous wild-type codons (log2) (methotrexate 44 µM): -0.161 ± 0.12

F36H
selection coefficient against synonymous wild-type codons (log2) (methotrexate 8.8 µM): 0.895 ± 0.044
selection coefficient against synonymous wild-type codons (log2) (methotrexate 44 µM): 1.19 ± 0.025

F36I
selection coefficient against synonymous wild-type codons (log2) (methotrexate 8.8 µM): 0.34 ± 0.021
selection coefficient against synonymous wild-type codons (log2) (methotrexate 44 µM): 0.5 ± 0.04

F36K
selection coefficient against synonymous wild-type codons (log2) (methotrexate 8.8 µM): -0.481 ± 0.12
selection coefficient against synonymous wild-type codons (log2) (methotrexate 44 µM): -0.118 ± 0.059

F36L
selection coefficient against synonymous wild-type codons (log2) (methotrexate 8.8 µM): 0.259 ± 0.039
selection coefficient against synonymous wild-type codons (log2) (methotrexate 44 µM): 0.31 ± 0.071

F36M
selection coefficient against synonymous wild-type codons (log2) (methotrexate 8.8 µM): 0.441 ± 0.06
selection coefficient against synonymous wild-type codons (log2) (methotrexate 44 µM): 0.466 ± 0.16

F36N
selection coefficient against synonymous wild-type codons (log2) (methotrexate 8.8 µM): -0.299 ± 0.14
selection coefficient against synonymous wild-type codons (log2) (methotrexate 44 µM): 0.0358 ± 0.074

F36P
selection coefficient against synonymous wild-type codons (log2) (methotrexate 8.8 µM): -0.325 ± 0.12
selection coefficient against synonymous wild-type codons (log2) (methotrexate 44 µM): -0.113 ± 0.14

F36Q
selection coefficient against synonymous wild-type codons (log2) (methotrexate 8.8 µM): 0.587 ± 0.0065
selection coefficient against synonymous wild-type codons (log2) (methotrexate 44 µM): 0.972 ± 0.02
